The list shows a part of the results. Most values come without repeats; read them as rough.
What was measured:
Test in all cases: cell count relative to DMSO control; melanoma cells; higher = more viable cells
Details in all cases: library dose: low library concentration; 72 h
[1] = system: WM115
[2] = system: WM1716
[3] = system: WM1745
[4] = system: WM3526
[5] = system: WM3619
[6] = system: WM451Lu
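Note: cell number obtained by counting DAPI-stained nuclei in high-throughput microscope images with image analysis software, screen run in 1,536-well plates.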

Compound: O=C(/C=C/c1cccnc1)NCCCCC1CCN(C(=O)c2ccccc2)CC1 + C[C@@H](Oc1cc(-c2cnn(C3CCNCC3)c2)cnc1N)c1c(Cl)ccc(F)c1Cl [Crizotinib] (first compound 0.01 µM, partner dose 0.2 µM)
- cell count [1]: 92.3%
- cell count [2]: 111%
- cell count [3]: 88.1%
- cell count [4]: 116%
- cell count [5]: 87.7%
- cell count [6]: 96.5%

Compound: CC1(C)CCC(c2ccc(Cl)cc2)=C(CN2CCN(c3ccc(C(=O)NS(=O)(=O)c4ccc(N[C@H](CCN5CCOCC5)CSc5ccccc5)c(S(=O)(=O)C(F)(F)F)c4)cc3)CC2)C1 + Cn1c(Nc2ccc(C(F)(F)F)cc2)nc2cc(Oc3ccnc(-c4ncc(C(F)(F)F)[nH]4)c3)ccc21 [CHIR265] (first compound 0.4 µM, partner dose 0.08 µM)
- cell count [1]: 22.7%
- cell count [2]: 54.4%
- cell count [3]: 4.64%
- cell count [4]: 41.2%
- cell count [5]: 39.6%
- cell count [6]: 71.2%

Compound: Cc1ccc(Nc2nccc(N(C)c3ccc4c(C)n(C)nc4c3)n2)cc1S(N)(=O)=O [Pazopanib] + CN1CCN(c2ccc3nc(-c4c(N)c5c(F)cccc5[nH]c4=O)[nH]c3c2)CC1 [Dovitinib] (first compound 0.4 µM, partner dose 0.1 µM)
- cell count [1]: 88.7%
- cell count [2]: 100%
- cell count [3]: 86.8%
- cell count [4]: 89.8%
- cell count [5]: 83.4%
- cell count [6]: 97%

Compound: CC1(C)CCC(c2ccc(Cl)cc2)=C(CN2CCN(c3ccc(C(=O)NS(=O)(=O)c4ccc(N[C@H](CCN5CCOCC5)CSc5ccccc5)c(S(=O)(=O)C(F)(F)F)c4)cc3)CC2)C1 + CN(C)S(=O)(=O)c1ccc2c(c1)/C(=C/c1cc3c([nH]1)CCCC3)C(=O)N2 [SU6656] (first compound 0.4 µM, partner dose 0.4 µM)
- cell count [1]: 64.5%
- cell count [2]: 70.1%
- cell count [3]: 8.17%
- cell count [4]: 103%
- cell count [5]: 95.5%
- cell count [6]: 73.5%

Compound: O=C(/C=C/c1cccnc1)NCCCCC1CCN(C(=O)c2ccccc2)CC1 + C=C(c1ccc(C(=O)O)cc1)c1cc2c(cc1C)C(C)(C)CCC2(C)C [Bexarotene] (first compound 0.01 µM, partner dose 2 µM)
- cell count [1]: 96.6%
- cell count [2]: 83.6%
- cell count [3]: 104%
- cell count [4]: 89.5%
- cell count [5]: 60.7%
- cell count [6]: 88.9%

Compound: Cc1ccc(Nc2nccc(N(C)c3ccc4c(C)n(C)nc4c3)n2)cc1S(N)(=O)=O [Pazopanib] + O=c1cc(-c2cccc3c2Sc2ccccc2S3)oc(N2CCOCC2)c1 [KU55933] (first compound 0.4 µM, partner dose 1 µM)
- cell count [1]: 93.7%
- cell count [2]: 99.2%
- cell count [3]: 101%
- cell count [4]: 103%
- cell count [5]: 103%
- cell count [6]: 84.5%

Compound: Cc1ccc(Nc2nccc(N(C)c3ccc4c(C)n(C)nc4c3)n2)cc1S(N)(=O)=O [Pazopanib] + COCC[n+]1c2c(n(Cc3cnccn3)c1C)C(=O)c1ccccc1C2=O [YM155] (first compound 0.4 µM, partner dose 0.0004 µM)
- cell count [1]: 95.9%
- cell count [2]: 85.3%
- cell count [3]: 92.4%
- cell count [4]: 107%
- cell count [5]: 92.7%
- cell count [6]: 75.9%

Compound: CC1(C)CCC(c2ccc(Cl)cc2)=C(CN2CCN(c3ccc(C(=O)NS(=O)(=O)c4ccc(N[C@H](CCN5CCOCC5)CSc5ccccc5)c(S(=O)(=O)C(F)(F)F)c4)cc3)CC2)C1 + Cc1cc([N+](=O)[O-])ccc1NS(=O)(=O)c1cc(Cl)ccc1Cl [FH535] (first compound 0.4 µM, partner dose 1 µM)
- cell count [1]: 60%
- cell count [2]: 66.6%
- cell count [3]: 16.8%
- cell count [4]: 84.3%
- cell count [5]: 94.2%
- cell count [6]: 68.1%

Compound: Cc1ccc(Nc2nccc(N(C)c3ccc4c(C)n(C)nc4c3)n2)cc1S(N)(=O)=O [Pazopanib] + CC(C)C[C@H](NC(=O)[C@H](Cc1ccccc1)NC(=O)c1cnccn1)B(O)O [Bortezomib] (first compound 0.4 µM, partner dose 0.001 µM)
- cell count [1]: 96.4%
- cell count [2]: 85.3%
- cell count [3]: 89.5%
- cell count [4]: 76.4%
- cell count [5]: 86.3%
- cell count [6]: 114%

Compound: CC1(C)CCC(c2ccc(Cl)cc2)=C(CN2CCN(c3ccc(C(=O)NS(=O)(=O)c4ccc(N[C@H](CCN5CCOCC5)CSc5ccccc5)c(S(=O)(=O)C(F)(F)F)c4)cc3)CC2)C1 + O=C(O)c1ccc2c(c1)nc(Nc1cccc(Cl)c1)c1ccncc12 [CX4945] (first compound 0.4 µM, partner dose 0.4 µM)
- cell count [1]: 67.9%
- cell count [2]: 30.8%
- cell count [3]: 8.25%
- cell count [4]: 66.9%
- cell count [5]: 78.8%
- cell count [6]: 64.2%

Compound: CC1(C)CCC(c2ccc(Cl)cc2)=C(CN2CCN(c3ccc(C(=O)NS(=O)(=O)c4ccc(N[C@H](CCN5CCOCC5)CSc5ccccc5)c(S(=O)(=O)C(F)(F)F)c4)cc3)CC2)C1 + CCN(CC)CCCCNc1ncc2cc(-c3cc(OC)cc(OC)c3)c(NC(=O)NC(C)(C)C)nc2n1 [PD173074] (first compound 0.4 µM, partner dose 0.1 µM)
- cell count [1]: 85.7%
- cell count [2]: 75.8%
- cell count [3]: 10.7%
- cell count [4]: 86.6%
- cell count [5]: 76.2%
- cell count [6]: 73.3%
